Measurements from the supplement of paper PMC3724861.
This is one part of the list.

test system: T1, Caupolican (Caup) homeodomain DNA-binding domain; test: PBM E-score (8-mer, recovered from the published 9-mer minima) (E-score (dimensionless, -0.5 to 0.5)); Drosophila protein; higher = stronger relative binding preference, active = 0.31 or more
T1 sequence: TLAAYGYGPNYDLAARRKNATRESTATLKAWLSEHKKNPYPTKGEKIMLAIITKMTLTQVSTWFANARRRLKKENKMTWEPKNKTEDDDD
Procedure, shortened: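 An enrichment score, with higher meaning stronger, expresses relative binding preference for each short DNA word. The protein used was Caup's homeodomain DNA-binding domain (residues 214-303), produced by in vitro transcription and translation and tested at 100 nM on custom-designed protein binding microarrays. The 8-mer values were recovered from published 9-mer scores, each equal to the lower of its two constituent 8-mer scores.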

PBM E-score, ≥ 0.0838:
ATTGTGGA

PBM E-score, ≥ 0.0764:
ACGTGAAA

PBM E-score, ≥ 0.00079:
AAGGCACA

PBM E-score, ≥ 0.0674:
ACCGTTTA

PBM E-score, inactive:
AGAAACCA 0.0846
ATCCTAGC 0.0256
AGATCGCC -0.108
CATAGGAC 0.102
CAGAACGA 0.112
CCCTGGCC -0.3
CTTTATTC 0.0345
GAAGAAAA -0.00673
GCCACCGC -0.316
CACCCCTC -0.0967
AGAAGAGG -0.176
ATAACTAC 0.249
ACCCGTGC -0.0824
CATAGTCA 0.134
CAAGATTG 0.166
CCTGCAGG -0.215
GTTTATAA 0.117
CGACCTAA -0.00057
CGAGTCTC -0.0882
GGATGGGA -0.0347
CATGGTAC 0.193
GCTTGGTA 0.112
AGGTCCTA -0.0805
CGCACTTA -0.0449
ACGTCAGG -0.0595
CATCGGGG -0.142
AAAGGCTG -0.0527
AAGAACGA 0.0536
CTGATCAC 0.0437
CACTTCTA 0.0585
CCCGTGAG -0.124
CCCGCAGG -0.28
AAAAGCCA -0.0723
GCTTTGAA -0.0195
TGATCCCA -0.0801
CACTACAG 0.114
CGGAGTAC -0.0348
GGTAACCA 0.0779
GACGGGGA -0.227
CGCGGGCC -0.272
CCATTCAG -0.00284
CAGATGCC -0.121
ACGTGAAC -0.0154
CGTGGAAC -0.0517
ACAGATAA 0.199
AATCAATC 0.156
CTCCGTTA -0.0366
GATGTTAA 0.28
CCCGAATC -0.201
GTATGCGA 0.06
TCGCCTCA -0.146
AGCGTACC -0.17
ATTATTTA 0.189
ATATTCGA 0.0446
CCTTACTA 0.0798
ACACTGTA 0.205
TCCCAGAA -0.138
TCTCTCCA -0.109
ATCCTCCC -0.184
CATTACCA 0.119
AGGCGGGG -0.167
CAAGGACC 0.00781
AAGCGCAG -0.114
CCGTGCAC 0.00622
AAATGCCA -0.0499
AGAAAGTA 0.0641
GGCGCGAC -0.185
TAGGGTAA 0.091
CGCCATTC -0.132
ACCCACTA 0.0164
AGTGCCCC -0.219
CATCGAGG -0.00272
CCTCCCCC -0.369
GGTCATAA 0.0617
ACGTCAAG -0.0382
ACACAGGA 0.201
GCATGAGC -0.0712
CGTCCAGC -0.094
ATTGTGGC -0.0911
AAACCTCA 0.0488
AAACGACC -0.0413
GAGGACGC -0.0949
GAATGAGC 0.0736
GAGCTGGC -0.133
CCGTAGTC -0.148
CACGGACC -0.0277
GTCCGATA 0.0652
TGTCGCAA 0.154
AACCCTAG 0.0534
ATATCCGA 0.134
AGTATCCG 0.0154
ACGGAGTC -0.0831
CCCCGGTA -0.0789
CACCCCCC -0.261
AAAACAGC 0.148
TCGAGACA 0.165
CCGGGGCC -0.294
CCCCCCCC -0.378
CAAACTTC 0.0813
CCCTGGGC -0.316
TCGACTAA 0.114
CCGTGTCA 0.278
CTGCTACA 0.182
CGCGGAGA -0.112
AAATGACA 0.267
ATTCCTGA 0.0483
CAAGGAGC -0.0683
CCCACAAG -0.101
AAGGATCG -0.00636
AAATTTTC -0.0413
CCTGTTCA 0.15
ACTTGTGG 0.0442
CACTTAGC -0.0589
ACCTATCC -0.0326
CATGACTA 0.198
AATTAATG 0.18
CTAGTCTC 0.0185
CAACGCAC -0.0213
ATAATAGC 0.0678
CGTCATCA 0.0738
CCCTACAC 0.0585
AATGAGGT 0.0755
CTGTGAGC -0.0353
ATTTCTGG 0.0733
ATCTCGAA -0.0205
GGAGGATA -0.0589
CTACGCTA -0.0834
AACGTCTC 0.0592
AATAGTCA 0.0868
AGCAGGCC -0.129
AATCATGG 0.0994
TGAGGGAA -0.0926
ATTTAAGG -0.11
ATCCTATG 0.117
ATCTCCGG -0.0699
ATTAATAA 0.176
GCTCCAAA -0.0959
ACGACCTA 0.044
AGGGCTTA -0.171
ACCTTCCA -0.0675
AGCGTGAG -0.108
ATGCAGTG 0.015
TAACAAGA 0.298
AATAACCC 0.0697
CGGACTCA -0.0355
AATGTGGT 0.109
GATATGAC 0.0792
GGACTCCC -0.16
AAATACAG 0.132
TCTAGAAA 0.0687
TAATACGA 0.157
CAATCCCC -0.092
AGACCTAA -0.0435
AAGTTAAG -0.00076
ATTAGTGG 0.131
CTCTATAC 0.00278
AGCGCTAA -0.0719
CATGCCGA 0.0553
AGTTCAAC 0.0449
CATACGAC 0.09
CTCCAACA 0.0786
ATACTCAA 0.139
CATTAGGC -0.0787
AGGGGGCG -0.287
CAACTGTG 0.0761
AGTCTACA 0.125
GTTTCTGA -0.00907
TGCTCGAA 0.0393
CGCGAGCA -0.0924
ATAGAATG 0.156
CCCTAAAC -0.0887
CGGACCAA 0.0071
GGGAGTTA -0.0818
CGGGTCTC -0.113
AACCAGAT 0.153
ACCGTAAC -0.0155
AGACTAAC -0.0237
AAGCCCCC -0.36
ATTTCTGA 0.0425
TACCACCA 0.0696
GCATGGGC -0.179
CTAAACGC -0.0672
CCCTCATA -0.0357
AGTTTTCG 0.0178
GGCCTGCA -0.239
ATACTTAG 0.0483
GGGGCAAC -0.0774
ATGGACTC -0.0423
ATTGTAAA 0.246
ATTCAACG 0.031
ACCTATAC 0.12
CTGGGTCA -0.12
AAATAAAT 0.109
CATGTGCG 0.108
GAGCTGTA 0.079
GGCGGCAC -0.24
CCCTGTTA 0.126
AGTGGTGG -0.0979
CGTGCCAA -0.115
AGGGGCTA -0.162
TCACGCAA 0.0565
CGTCACTC -0.181
GATAGTAC 0.172
CCTACCCC -0.298
AACAGTGG 0.0316
ATCTTTCG -0.0796
CCCCGGAA -0.169
CAACCTGG 0.0642
ACATAAAA 0.221
AAATCAGA 0.161
CTGCCGAC -0.164
CCCCCACA -0.245

PBM E-score, ≥ 0.162:
AACGAGCA

PBM E-score, active:
TAGTACAA 0.38
ATGTAGTC 0.331
ACGTGTAA ≥ 0.394
TACACGTA 0.361

PBM E-score, ≥ 0.101:
ATCGGTTA

PBM E-score, ≥ 0.287:
TCGGTACA

PBM E-score, ≥ 0.164:
ATCATGAT
